Source: the supplement of paper PMC11417369
Some of the results follow.

The sequences below were run on PfHDP1 homeodomain (GST-tagged) (assay: gcPBM binding intensity (ln(normalized median fluorescence intensity)); higher = stronger DNA binding).
Procedure, shortened: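 GST-tagged P. falciparum DNA-binding domains, expressed in E. coli (about 25 μg on average), were applied for 1 h to an Agilent 4 × 180k array of primer-extended double-stranded 36-bp intergenic genomic probes plus negative controls. The binding buffer was 1× PBS with 1% milk, 0.2 mg/ml BSA, 0.5% salmon testes DNA and 0.03% Triton X-100. Bound protein was detected with Alexa488 anti-GST antibody and scanned at 488 nm. Binding intensity is the highest Masliner-normalised natural-log median intensity across replicate spots of either probe orientation.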

Sequence	gcPBM binding intensity (ln)
TATTGACATATATTAGTGCAATAATGAAATCAAGTA	10
TATATATGTATCAAGTGTACAGTTTTAAAAAAAAAA [XGTACX_site6011]	7.05
ATACATCGTATATAAGTGCATATTAAGGTCTTAAGA [GTGCAC_site9560]	8.69
GAACATTTGAAATATGCACACATGTATAAACATACA [CACACA_site5463]	9.88
ACACACAATACAAAAGTGCATATAATAATTAATCAT	7.77
GTGTTGAATTATGTGCTTTTTTCTTTCTACTCAGTA [XGTACX_negctrl_site464]	7.24
TTTTTTTGCCATATTACACACACACGGGTAAACCCC [CACACA_site6874]	6.92
TAAATTTTTATTTGTAGTACTATATATATATATATA [XGTACX_site1026]	9.21
TTTAATATAACTATTTGTACATAAAGAATATAAATA [XGTACX_site4594]	6.3
TAATGAAAATATATAACACACAAAAGTTATAAATAT [CACACA_site1189]	6.43
CTACATAAAAAAATATGTACATATATATATATATAT [XGTACX_site667]	9.15
TTATCGACCAATAAAGCATGCAAAAAAAAAAAAAAA [TGCATGCA_site788]	6.46
AAGAGAAAAAGAATGAAAGAAAAAAAAAAAAAATAT [CACACA_negctrl_site1527]	6.33
CCCACAGACAAAAACACACACAAAGGTGTTCTTATA [CACACA_site4840]	6.37
TTTTTAAAGGTGATAAAACACACGATTTAGAAATGT [CACACA_site3160]	6.36
TCTATTAATTAATATACACACATTATGTATATATAT [CACACA_site2541]	6.81
TTTCATTAATCTAATAGTACAGAAAATTGAGAAAAA [XGTACX_site8395]	6.66
GTATACAAACATATAAATATAAATGTATTATTTGTT [CACACA_negctrl_site756]	6.09
TCGTGCATAAATCATACACACACACCGATATATATA [CACACA_site8767]	9.94
TCACAATTTTTTAGTACACACATATAAATATATAAA [CACACA_site1537]	6.64
AAAAAAAAAAAAAACGCACACATTTTTACAATTCTA [CACACA_site3271]	6.94
TTTGTATCCTTTTTGACATGCAACCATTCGGGTACA [TGCATGCA_site506]	6.63
AAAAAATTGACTAATGCACACAATTACAGATATATA [CACACA_site5010]	9.85
ACTTTAACCTGAACGGTGCATAAAATTTTGGCATTA	9.67
AAAGATAAAAAAAGTACACACACACCGATATATATA [CACACA_site9006]	7.18
